# Test results: patent US20260216242A1 (ALMAC DISCOVERY, published 2026)
# B1: E10-hFc (S239C)-MA-PEG4-vc-PAB-EDA-PNU159682 (Fc fusion)
# chain: QVQLVESGGGLVQAGGSLRLSCAVSGRALSDYNIGWFRQAPGKEREFVARKTWDGSSTRYDDSVKGRFTVSIEDAKNTAYLQMSSLKTEDTAVYYCAAGRYSRARGWEYDYWGQGTQVTVSSGGGGSGGGGSGGGGS[human IgG1 Fc with changes not spelt out]
# modifications: MA-PEG4-vc-PAB-EDA-PNU159682 on Cys 239 (S239C, EU numbering); DAR 1.98
# B2: E06-hFc (S239C)-MA-PEG4-vc-PAB-EDA-PNU159682 (Fc fusion)
# chain: QVHLVESGGGLVQAGGSLRLSCAASRRSFSEYAMGWFRQAPGKEREFVAAIGWSGVIEYADSVKGRFTISRDNAKDTVYLQMNSLKPEDTAVYYCAAGLGIRVVSQTPAYWGQGTQVTVSSGGGGSGGGGSGGGGS[human IgG1 Fc with changes not spelt out]
# modifications: MA-PEG4-vc-PAB-EDA-PNU159682 on Cys 239 (S239C, EU numbering); DAR 1.97
# B3: E06 linker Cys-hFc-vcPAB-MMAE (S442C) (Fc fusion)
# chain: QVHLVESGGGLVQAGGSLRLSCAASRRSFSEYAMGWFRQAPGKEREFVAAIGWSGVIEYADSVKGRFTISRDNAKDTVYLQMNSLKPEDTAVYYCAAGLGIRVVSQTPAYWGQGTQVTVSSGCGGSGGGGSGGGGS[human IgG1 Fc with changes not spelt out]
# modifications: MC-vc-PAB-MMAE on the linker Cys and on Cys 442 (S442C, EU numbering); DAR 4.1
# B4: D10 E06-hFc (S239C), [G4S]3 linkers (Fc fusion)
# chain 1: QVQLVESGGGLVQPGGSLRLSCAASGSIFSVNTMGWYRQAPGKQRDLVAVATSGGTIHYADSVKGRFTISRDNAKNTVYLQMNSLKPEDTAVYYCNLVVPYGMIAGDHDYWGQGTKVTVSSGGGGSGGGGSGGGGS[human IgG1 Fc with C220S S239C T366Y (EU numbers) not spelt out]
# chain 2: QVHLVESGGGLVQAGGSLRLSCAASRRSFSEYAMGWFRQAPGKEREFVAAIGWSGVIEYADSVKGRFTISRDNAKDTVYLQMNSLKPEDTAVYYCAAGLGIRVVSQTPAYWGQGTQVTVSSGGGGSGGGGSGGGGS[human IgG1 Fc with C220S S239C Y407T (EU numbers) not spelt out]
# notes: Biparatopic knobs-into-holes heterodimer; also called #610
# B5: D10 E10-hFc (S239C), [G4S]3 linkers (Fc fusion)
# chain 1: B4 chain 1
# chain 2: QVQLVESGGGLVQAGGSLRLSCAVSGRALSDYNIGWFRQAPGKEREFVARKTWDGSSTRYDDSVKGRFTVSIEDAKNTAYLQMSSLKTEDTAVYYCAAGRYSRARGWEYDYWGQGTQVTVSSGGGGSGGGGSGGGGS[human IgG1 Fc with C220S S239C Y407T (EU numbers) not spelt out]
# notes: Biparatopic knobs-into-holes heterodimer; also called #607
# How the values were obtained:
# [1] = target: human ALPPL2 expressed on CHO cells (CHO-ALPPL2) (human, UniProt P10696 20-503); test: cell-based or functional assay
# [2] = target: T1, human ALPL expressed on CHO cells (CHO-ALPL) (human, UniProt P05186 18-501); test: cell-based or functional assay
# T1 sequence (looked up): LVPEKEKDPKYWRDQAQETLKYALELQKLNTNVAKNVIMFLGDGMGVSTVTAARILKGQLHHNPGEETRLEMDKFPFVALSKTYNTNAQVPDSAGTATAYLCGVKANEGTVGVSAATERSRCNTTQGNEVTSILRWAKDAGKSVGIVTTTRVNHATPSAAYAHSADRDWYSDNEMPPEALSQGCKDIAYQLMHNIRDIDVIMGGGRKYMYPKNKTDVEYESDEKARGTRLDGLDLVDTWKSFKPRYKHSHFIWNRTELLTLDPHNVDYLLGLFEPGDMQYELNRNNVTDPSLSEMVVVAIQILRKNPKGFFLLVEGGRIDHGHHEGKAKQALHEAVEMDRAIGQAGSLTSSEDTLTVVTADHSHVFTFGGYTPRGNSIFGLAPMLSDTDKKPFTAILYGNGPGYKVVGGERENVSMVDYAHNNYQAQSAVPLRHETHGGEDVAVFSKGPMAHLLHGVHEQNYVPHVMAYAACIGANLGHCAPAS
# [3] = target: T2, human ALPI expressed on CHO cells (CHO-ALPI) (human, UniProt P09923 20-503); test: cell-based or functional assay
# T2 sequence (looked up): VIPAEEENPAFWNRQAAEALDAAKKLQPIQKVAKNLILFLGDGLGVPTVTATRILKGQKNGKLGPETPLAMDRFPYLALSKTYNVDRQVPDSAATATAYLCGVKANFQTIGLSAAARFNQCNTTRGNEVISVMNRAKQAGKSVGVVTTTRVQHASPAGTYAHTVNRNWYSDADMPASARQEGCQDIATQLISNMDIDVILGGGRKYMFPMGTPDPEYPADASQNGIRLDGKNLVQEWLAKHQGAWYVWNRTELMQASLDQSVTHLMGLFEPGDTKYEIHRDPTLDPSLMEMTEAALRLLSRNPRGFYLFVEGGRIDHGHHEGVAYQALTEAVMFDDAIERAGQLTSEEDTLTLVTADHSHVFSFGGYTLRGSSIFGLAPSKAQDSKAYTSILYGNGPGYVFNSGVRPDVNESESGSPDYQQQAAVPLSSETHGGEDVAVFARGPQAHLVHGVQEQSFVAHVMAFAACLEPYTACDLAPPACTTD
# [4] = target: human ALPP expressed on CHO cells (CHO-ALPP) (human, UniProt P05187 23-506); test: cell-based or functional assay
# ALPI His = target: T3, ALPI His (human, UniProt P09923 20-503); test: BLI
# T3 construct: Soluble ALPI with a C-terminal G4S-His6; also called hALPI; ALPI His homodimer
# T3 sequence: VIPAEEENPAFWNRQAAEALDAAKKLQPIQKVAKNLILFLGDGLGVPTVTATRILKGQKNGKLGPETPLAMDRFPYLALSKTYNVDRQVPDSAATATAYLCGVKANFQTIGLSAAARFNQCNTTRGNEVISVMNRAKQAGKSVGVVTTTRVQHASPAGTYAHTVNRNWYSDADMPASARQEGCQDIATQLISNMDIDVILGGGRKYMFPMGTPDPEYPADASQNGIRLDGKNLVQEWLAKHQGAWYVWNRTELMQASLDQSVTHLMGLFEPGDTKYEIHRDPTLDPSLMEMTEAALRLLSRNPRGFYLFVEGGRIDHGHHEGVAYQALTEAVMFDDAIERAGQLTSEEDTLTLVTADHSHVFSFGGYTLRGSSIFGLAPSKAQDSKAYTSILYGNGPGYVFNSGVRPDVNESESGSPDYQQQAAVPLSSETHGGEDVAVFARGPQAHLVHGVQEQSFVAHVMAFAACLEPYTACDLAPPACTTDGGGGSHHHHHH
# Procedure: (§1) Binding kinetics were determined using the Biolayer Interferometry (BLI) Octet K2 or R4 system (Sartorius). […] For KD apparent measurements, the ALPP proteins were immobilised in sodium acetate pH5 buffer to AR2G sensors using amine coupling. To measure 1:1 interactions, AHC biosensors were used to immobilise Fc-fused proteins. All assays were conducted in HBS-EP with a plate temperature of 25° C. Ka (M⁻¹s⁻¹), Kd (s⁻¹) and KD (nM) values were determined using Octet Data Analysis High Throughput software (Sartorius) for Biolayer Interferometry.
# [5] = target: T4, Human ALPL (leucine zipper) (human); test: BLI
# T4 construct: Soluble human ALPL fused to a disulphide stabilised leucine zipper and a His tag; also called hALPL; TNAP
# T4 chain: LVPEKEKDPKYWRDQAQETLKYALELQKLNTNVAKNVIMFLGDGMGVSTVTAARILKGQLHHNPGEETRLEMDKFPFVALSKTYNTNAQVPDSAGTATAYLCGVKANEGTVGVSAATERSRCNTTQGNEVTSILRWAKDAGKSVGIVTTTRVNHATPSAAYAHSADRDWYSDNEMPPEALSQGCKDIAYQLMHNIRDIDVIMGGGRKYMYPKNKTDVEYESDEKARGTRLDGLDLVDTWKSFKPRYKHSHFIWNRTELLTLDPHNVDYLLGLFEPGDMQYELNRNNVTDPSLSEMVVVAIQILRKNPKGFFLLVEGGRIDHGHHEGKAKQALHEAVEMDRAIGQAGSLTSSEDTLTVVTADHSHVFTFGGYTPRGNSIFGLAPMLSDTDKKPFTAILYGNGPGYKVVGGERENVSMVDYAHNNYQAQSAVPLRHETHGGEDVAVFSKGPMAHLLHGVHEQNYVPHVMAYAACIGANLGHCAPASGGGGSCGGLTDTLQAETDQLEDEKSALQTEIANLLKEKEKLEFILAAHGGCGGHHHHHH
# Procedure: as §1
# [6] = target: T5, Human ALPP (leucine zipper) (human); test: BLI, KD 1:1 (Fc fusion captured on AHC sensor)
# T5 construct: Soluble human ALPP fused to a disulphide stabilised leucine zipper and a His tag; The whole entry is the construct; also called hALPP; PLAP
# T5 chain: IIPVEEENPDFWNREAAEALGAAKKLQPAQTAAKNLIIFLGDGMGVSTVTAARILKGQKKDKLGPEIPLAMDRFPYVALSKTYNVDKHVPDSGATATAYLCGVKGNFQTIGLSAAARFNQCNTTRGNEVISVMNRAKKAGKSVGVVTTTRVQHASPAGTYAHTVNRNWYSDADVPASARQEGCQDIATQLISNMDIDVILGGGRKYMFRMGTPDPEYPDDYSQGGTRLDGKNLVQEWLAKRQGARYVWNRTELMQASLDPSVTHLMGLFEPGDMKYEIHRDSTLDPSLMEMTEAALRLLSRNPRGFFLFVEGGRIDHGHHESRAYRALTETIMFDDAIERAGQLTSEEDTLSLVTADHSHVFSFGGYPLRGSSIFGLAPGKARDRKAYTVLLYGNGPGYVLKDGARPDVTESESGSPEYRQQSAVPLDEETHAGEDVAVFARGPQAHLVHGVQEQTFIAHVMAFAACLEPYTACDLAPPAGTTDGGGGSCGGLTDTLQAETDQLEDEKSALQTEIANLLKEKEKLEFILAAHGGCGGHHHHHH
# Procedure: as §1
# [7] = target: T6, Human ALPPL2 (leucine zipper) (human); test: BLI, KD 1:1 (Fc fusion captured on AHC sensor)
# T6 construct: Soluble human ALPPL2 fused to a disulphide stabilised leucine zipper and a His tag; The whole entry is the construct; also called hALPPL2; ALPG
# T6 chain: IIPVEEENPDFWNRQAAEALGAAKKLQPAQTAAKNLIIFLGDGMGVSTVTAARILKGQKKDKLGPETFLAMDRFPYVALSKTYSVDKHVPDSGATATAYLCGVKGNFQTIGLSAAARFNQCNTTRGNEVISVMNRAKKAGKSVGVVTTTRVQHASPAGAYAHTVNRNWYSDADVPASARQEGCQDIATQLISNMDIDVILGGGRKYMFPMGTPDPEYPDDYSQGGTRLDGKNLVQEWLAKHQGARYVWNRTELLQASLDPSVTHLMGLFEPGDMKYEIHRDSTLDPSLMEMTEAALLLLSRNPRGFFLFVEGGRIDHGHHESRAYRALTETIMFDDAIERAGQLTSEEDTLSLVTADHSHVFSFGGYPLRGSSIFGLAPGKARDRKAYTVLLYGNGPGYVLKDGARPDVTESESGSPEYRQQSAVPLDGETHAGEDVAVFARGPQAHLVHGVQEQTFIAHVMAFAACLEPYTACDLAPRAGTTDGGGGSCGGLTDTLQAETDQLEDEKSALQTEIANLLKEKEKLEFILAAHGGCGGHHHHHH
# Procedure: as §1
# [8] = target: T5, Human ALPP (leucine zipper); test: BLI, KD app (antigen immobilised on AR2G sensor)
# Procedure: as §1
# [9] = target: T6, Human ALPPL2 (leucine zipper); test: BLI, KD app (antigen immobilised on AR2G sensor)
# Procedure: as §1
binder,measurement,setting,value
B1,"cell killing IC50 @ 96 h, CHO-ALPPL2 cells (Cell Titre Glo)",[1],12.3 nM
same,"cell killing IC50 @ 96 h, CHO-ALPL cells (Cell Titre Glo)",[2],> 1000 nM
same,"cell killing IC50 @ 96 h, CHO-ALPI cells (Cell Titre Glo)",[3],700 nM
same,"cell killing IC50 @ 96 h, CHO-ALPP cells (Cell Titre Glo)",[4],9.8 nM
B2,"cell killing IC50 @ 96 h, CHO-ALPPL2 cells (Cell Titre Glo)",[1],19.8 nM
same,"cell killing IC50 @ 96 h, CHO-ALPL cells (Cell Titre Glo)",[2],> 1000 nM
same,"cell killing IC50 @ 96 h, CHO-ALPI cells (Cell Titre Glo)",[3],752 nM
same,"cell killing IC50 @ 96 h, CHO-ALPP cells (Cell Titre Glo)",[4],9.8 nM
B3,"cell killing IC50 @ 96 h, CHO-ALPPL2 cells (Cell Titre Glo)",[1],43.7 nM
same,"cell killing IC50 @ 96 h, CHO-ALPL cells (Cell Titre Glo)",[2],> 592 nM
same,"cell killing IC50 @ 96 h, CHO-ALPI cells (Cell Titre Glo)",[3],> 592 nM
same,"cell killing IC50 @ 96 h, CHO-ALPP cells (Cell Titre Glo)",[4],56.7 nM
B4,binding result,ALPI His,no binding
same,binding result,[5],no binding
same,Kd,[6],< 0.01 nM
same,koff,[6],< 1e-07 s⁻¹
same,kon,[6],494000 M⁻¹ s⁻¹
same,Kd,[7],< 0.01 nM
same,koff,[7],< 1e-07 s⁻¹
same,kon,[7],712000 M⁻¹ s⁻¹
same,Kd,[8],< 0.01 nM
same,koff,[8],< 1e-07 s⁻¹
same,kon,[8],356000 M⁻¹ s⁻¹
same,Kd,[9],0.192 nM
same,koff,[9],6.36e-05 s⁻¹
same,kon,[9],331000 M⁻¹ s⁻¹
B5,binding result,ALPI His,no binding
same,binding result,[5],no binding
same,Kd,[6],< 0.01 nM
same,koff,[6],< 1e-07 s⁻¹
same,kon,[6],445000 M⁻¹ s⁻¹
same,Kd,[7],< 0.01 nM
same,koff,[7],< 1e-07 s⁻¹
same,kon,[7],678000 M⁻¹ s⁻¹
same,Kd,[8],< 0.01 nM
same,koff,[8],< 1e-07 s⁻¹
same,kon,[8],402000 M⁻¹ s⁻¹
same,Kd,[9],0.286 nM
same,koff,[9],7.64e-05 s⁻¹
same,kon,[9],268000 M⁻¹ s⁻¹
